Measured values from the supplement of paper PMC11417369.
This is one part of the list.

Test system: PfAP2-HC AP2 domain (GST-tagged)
Assay: gcPBM binding intensity (ln(normalized median fluorescence intensity)); higher = stronger DNA binding
Outline: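 Binding intensity is the highest Masliner-normalised natural-log median intensity over replicate spots in either probe orientation. To obtain it, GST-tagged P. falciparum DNA-binding domains made in E. coli were incubated for 1 h on an Agilent 4 × 180k array of primer-extended double-stranded 36-bp intergenic genomic probes plus negative controls. Detection used Alexa488 anti-GST antibody with scanning at 488 nm.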

Row | Sequence | gcPBM binding intensity (ln)
1 | ATAACAAAATAAAACACACACACAAATGTACAGATA [CACACA_site5358] | 10.5
2 | ATTTTTGTGTTTACACGTACGTGTAAATTATTTTTC [XGTACX_site1869] | 9.95
3 | TATTCATGTTTAAAAAGTACATATTATGGTAACATT [XGTACX_site4533] | 9.58
4 | AGAAGCATACATCAAGCACACACACCCACACCCACA [CACACA_site8014] | 11.4
5 | TCCTTTTCTTAATTTAAAAAATATAAAAAAAACGAA [CACACA_negctrl_site1821] | 9.24
6 | ACACGTTTATATAAAAAATTAAAATTTTTCTTATTT [CACACA_negctrl_site1523] | 9.59
7 | AATACATACAGACACACACACACATATAAATAAATA [CACACA_site7642] | 11.6
8 | GCTCATTGAAGTTATACACACCAAATATGTAAATAT [CACACA_site7217] | 9.65
9 | AAAAGGGATAAATGTGCGCACATGTTATATATATAT [GTGCAC_site9534] | 9.98
10 | ACATATCTACACAGTGGTACTTCCATTAATATATAC [XGTACX_site3827] | 9.78
11 | TCATAAATTAAACAAACACACACGTTCTTTTATTTA [CACACA_site713] | 9.86
12 | ATTTATTCAAATGGTTGTACTACAAATAAACATTAT [XGTACX_site3378] | 9.63
13 | AACAATGTTGTACATACACACACACTAATAAAAAAT [CACACA_site8758] | 10.3
14 | CATAAATACACTGTAGCGCACACGGCCAAAAAAAAA [CACACA_site8537] | 9.95
15 | ATATAATATGGTATTACACACTGTTATAAGTATGGC [CACACA_site2094] | 9.79
16 | GTAAAAAAAGAGCACACACACAAAAACACCCACAAA [CACACA_site1292] | 10.9
17 | TTTATTCCCGCATATAGTACATATACCATTTAATGT [XGTACX_site7011] | 9.73
18 | AATATTTAAGTACTGGTGCGTGTATATAATGATTAA [GTGCAC_site9633] | 9.68
19 | AAACTTGTAAGAAACACACACACACGCATATAAATA [CACACA_site6518] | 10.7

Row | Sequence | gcPBM binding intensity (ln)
20 | ATAAATAAAATATGCACACAAATATAGGAAACAACA [CACACA_site2561] | 10.1
21 | TTAAATAAAATTTATTGTACATAAAATTAAATATAG [XGTACX_site3039] | 9.47
22 | CATAATTTACATAAAAGTACATATATATTAATGACG [XGTACX_site6247] | 9.64
23 | GTGTATCAATATGTAGGTACGTAAATATAGATAATA [XGTACX_site5526] | 9.81
24 | AATTAATATTTAAATTGTACATGAACATTTTAATGT [XGTACX_site462] | 9.5
25 | TAAATATTATTTATATGTACTGATATATTAAATAAA [XGTACX_site3446] | 9.38
26 | AAAATAAAATTTACTTGTACTAAAGGGATACGCGCA [XGTACX_site1453] | 9.69
27 | GTCACAAAATAAATTAAACACACAACATCATATATG [CACACA_site8182] | 10.3
28 | AATATAAATTTATATTGTACATATTTTATTATATGT [XGTACX_site905] | 9.67
29 | AAATAAAATCATAATGTGCGCATATAAATTTGTAGG [GTGCAC_site9662] | 10.1
30 | ATATATATATATGAAAGTACACATCTATTTTTTCTT [XGTACX_site6059] | 9.64
31 | AAGGTAGATATATTTAGTACGTAATTTTTTTTTTTT [XGTACX_site7288] | 9.64
32 | TAATATAATATATAGGTGCAATATTAACAAAAATTT | 9.61
33 | ATTAATATGAATAAATGTACAAATGAATGATTACAT [XGTACX_site6044] | 9.62
34 | ATAATGTGTTAGGCGTGTACACAATTGTATGGTTTA [XGTACX_site2377] | 9.85
35 | GACATAAGATAATTACACATTGTTTCCTCAATAATA [CACACA_negctrl_site1616] | 9.53
36 | TTTCTTTAATATATAGTGCATGTAAATTTTACAATA [GTGCAC_site9679] | 9.34
37 | TAAGTAAAAAATTAAAAAGATTACAGGGGGGGAAGG [XGTACX_negctrl_site491] | 9.72
38 | ATTTTAACGAATATATGTACATAAAAAAAAAAAAGA [XGTACX_site8750] | 9.77

Row | Sequence | gcPBM binding intensity (ln)
39 | AAAATAAGGACTGTTGTGCACTGGATTTGTGGTTAC [GTGCAC_site9830] | 9.89
40 | AAAAAAAAAAACAGTTGTACATTTATTTATATATTA [XGTACX_site217] | 9.61
41 | TATATACAAATATGTACACACATTACAGATGTACAT [CACACA_site6586] | 10
42 | TAGAAAAAATAAAATAGTACACATCCAAAAAAAAAA [XGTACX_site7829] | 9.71
43 | CCAAACAAAAAAAAAAGTACATAAAACACCTATTTG [XGTACX_site5645] | 9.66
44 | AATATATAAATATATACACACAAAAACATATATATA [CACACA_site1318] | 9.99
45 | ATAATTAGGGTGTATTTCATTTCATTTCATTTTATT [CACACA_negctrl_site1418] | 9.88
46 | AACGTATTATTTATCTGTACAAAATAATAACGTATT [XGTACX_site813] | 9.6
47 | TTTTGTTTTTTCAATGTGCACTTAGGATGTTTTTAT [GTGCAC_site9565] | 9.9
48 | ATCCAAATTAATAATAGTACTTTTAAGTCCTATGTA [XGTACX_site2452] | 9.56
49 | TAAATAAAAATACAGTGTACTTTTTTCTATTTAAAA [XGTACX_site3288] | 9.41
50 | CAAACAAATTGTGAAACACACATATATATATATATA [CACACA_site2001] | 9.71
51 | ATAATAAATGTCTTCAATGAAGTGGAAATGCTGTTA [TGCATGCA_negctrl_site238] | 9.55
52 | ATATATACATAGAATTGTACATAATTTATGTTCATT [XGTACX_site7426] | 9.45
53 | TTGGAGTTCATATGTGGTACACATTTAAATATATTT [XGTACX_site5582] | 9.74
54 | ATCATGGAAAAAACAAATGGGCTACATTACCTTTTG [GTGCAC_negctrl_site487] | 9.63
55 | GATATAAACGTATATGTACATATATATATATATATA [GTGCAC_negctrl_site186] | 10.5
56 | AAAAAAATAAATAAGACACACACAAAAAAAAAAAAA [CACACA_site8404] | 11
